# Experimental data as given in publication PMC10527347 (Journal of molecular biology, 2023).
# B1: Hsp90Ec N347C (natural protein)
# chain: not shown
# Biological target: the molecule itself
# Assay: cross-linking
protein,measurement,value
B1,binding result,binds
